Values joined by “and” are separate entries in the source; they are usually repeats but may differ in a detail not shown here. Identical values can stand only once. The campaign covered roughly 420,000 compounds. About 50,000 (12%) were called active. Inconclusive results, whose numbers are uncertain, are shown with a selection of clear calls. Calls come from the whole dose curve; as a rule, active = well fitted inhibition curve with a large enough effect; inconclusive = small, poorly fitted or top-dose-only effect; inactive = flat fitted curve, though single readings scatter. No potency is given beside an inconclusive call; the fits are too rough.
Experiment: qHTS for Inhibitors of human tyrosyl-DNA phosphodiesterase 1 (TDP1): qHTS in cells in presence of CPT; note: nearly all actives have a fitted effect of over 55% in size
Conditions: chicken DT40 Tdp1-/-;hTDP1 cells + 20 nM CPT, ATP luminescence, 48 h; activity change, negative = growth inhibition: at 46.2 µM (top of the series) unless noted
Procedure, shortened: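 Chicken DT40 Tdp1-/- cells stably complemented with human TDP1 were seeded at 400 cells/well in medium containing 20 nM camptothecin, exposed to pin-transferred compounds, and grown at 37 °C for at least 48 hr. Viability was read as ATP luminescence.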
% is set by controls: 0 for no effect and ±100 for the full control effect; potency is the fitted concentration of half-maximal effect; tags give direction and shape of the fitted curve.

Structure (SMILES)	Potency	activity change, negative = growth inhibition
COc1ccc(-c2nc(CN3CCC(C(=O)NCc4ccccc4)CC3)c(C)o2)cc1OC	inactive	–
Cc1cc(NC(=O)c2cccc(N3C(=O)CCC3=O)c2)no1	inconclusive [inhibitor, partial curve, poor fit]	–
CCOC(=O)N1CCN(c2c(F)cc3[nH]c(=S)[nH]c3c2Br)CC1	inconclusive [inhibitor, single point]	–
CSc1ccc(/C=C/C(=O)c2ccc(O)cc2)cc1	active: 18.4 µM	–
c1ccc2c3c([nH]c2c1)CCCC3	inactive	–
CC(C)(C)c1ccc(C(=O)Nc2ccc(NC(=O)C(=O)O)cc2)o1	inactive	–
CCOC(=O)c1ccccc1NC(=O)N(C(C)C)C1CCN(C(C)=O)CC1	active: 14.6 µM	–
Cc1cc(NC(=O)Cn2nnc3sc4c(c3c2=O)CCCC4)no1	inactive	–
COc1ccc(C(=O)N2CCC(O)(c3ccc(Cl)cc3)CC2)cc1OC	inactive	–
Cc1ccc(-c2nnc(SCc3cccc(C#N)c3)o2)cc1	inconclusive [inhibitor, partial curve]	–
Oc1ccc(N=Nc2ccccc2)cc1	inconclusive [inhibitor, single point]	–
CCOc1ccc(NC(=O)Cn2nnc(-c3ccccc3NC(=O)c3cccs3)n2)cc1	inconclusive [inhibitor, single point]	–
CCCCCC(=O)Nc1cccc(C2=NOC3(C2)C[C@H](C(N)=O)N(C(=O)c2ccccc2C(=O)c2ccccc2)C3)c1 (stereo partly drawn)	inconclusive [inhibitor, single point]	–
COc1ccc(C(=O)CN2CCN(CCN3C(=O)c4cccc5cccc(c45)C3=O)CC2)cc1	inconclusive [inhibitor, single point]	–
Cc1cc(F)ccc1S(=O)(=O)N1CCCOC1CNC(=O)C(=O)NC1CC1 (stereo not drawn)	inactive	–
CCOC(=O)c1cccnc1SCC(=O)Nc1ccc(C)cc1C	inconclusive [inhibitor, single point]	–
O=[N+]([O-])c1ccc(Cl)c(C[n+]2cccc3ccccc32)c1	active: 20.6 µM	–
O=C(/C=C/c1ccc(Cl)cc1)NCCCn1ccnc1	–	inconclusive: -31.3% [inhibitor]
O=c1c(Cc2ccccc2)c(O)ccn1Cc1ccco1	inactive	–
COCc1c(C(=O)N2CCN(C3CCCCC3)CC2)cnn1-c1ncc(C)c(-c2cccs2)n1	–	inactive: 1.64% [at 9.04 µM]
Cc1ccc(NC(=S)NCc2ccc(F)cc2)cc1	inconclusive [inhibitor, single point]	–
C[C@@H]1COC(=O)[C@H](NC(=O)OCC2c3ccccc3-c3ccccc32)C/C=C\C[C@@H](CC(=O)N[C@H](CO)Cc2ccccc2)C(=O)N1	active: 18.4 µM	–
Cc1ccc2nc3c(cc2c1)c(NC(=O)c1cccnc1)nn3C	inconclusive [inhibitor, partial curve]	–
O=C(O)c1ccccc1NS(=O)(=O)c1ccc(N/N=C/c2cccc(O)c2O)c([N+](=O)[O-])c1	inactive	–
O=C1C2(CCCC13COC(c1ccc(O)cc1)OC3)COC(c1ccc(O)cc1)OC2 (stereo not drawn)	inactive	–

Structure (SMILES)	Potency	activity change, negative = growth inhibition
COc1ccc(N2CC(O)=C(c3nc(-c4ccc(F)cc4)cs3)C2=N)cc1OC	inconclusive [inhibitor, single point]	–
CC(=O)OC[C@@H]1CN(Cc2ccccc2)C[C@H](n2cnc3c(N4CCN(c5ccccc5)CC4)ncnc32)O1	active: 16.4 µM	–
CN(C)CCNC(=O)c1ccc2c(=O)n3c(nc2c1)CCCCC3	inconclusive [inhibitor, single point]	–
C/C(=N\NC(=O)c1c(Cl)cnn1C)c1cccc(NC(=O)c2ccc(C)cc2)c1	inconclusive [inhibitor, single point]	–
CCSc1ccc2nnc(-c3cccc(F)c3)n2n1	inactive	–
O=C(NCCc1ccccc1)c1nnc(Cc2cccc(F)c2)o1	inactive	–
O=C(Cn1nc(-c2ccccc2)ccc1=O)NCc1ccc(F)cc1	inconclusive [inhibitor, partial curve]	–
Cc1ccc2c(c1)-c1c(cnc3cc(-c4ccccc4)nn13)CO2	inactive	–
Cc1cc(C(=O)COC(=O)CC2Sc3ccccc3NC2=O)c(C)n1-c1ccc2c(c1)OCO2 (stereo not drawn)	inconclusive [inhibitor, single point]	–
CCCCc1ccc(NC(=O)c2ccc(=O)n(Cc3cccc(C)c3)c2)cc1	inconclusive [inhibitor, single point]	–
NC(Cc1ccccc1)c1csc(Nc2ccc(C(F)(F)F)cn2)n1 (stereo not drawn)	active: 20.6 µM	–
O=[N+]([O-])c1ccc(N(CC(O)CN2CCCCC2)S(=O)(=O)c2ccccc2)cc1 (stereo not drawn)	inconclusive [inhibitor, single point]	–
c1ccc(-c2ccccc2OCCOCCN2CCc3ccccc3C2)cc1	inconclusive [inhibitor, single point]	–
O=C(CSc1nnnn1-c1cccc2c1CCCC2)NC1CCCC1	inconclusive [inhibitor, single point]	–
COc1ccc(CC(=O)N/N=C(\C)c2ccc(Br)s2)cc1	inactive	–
COc1ccc(Cl)cc1S(=O)(=O)n1cnc2ccccc21	active: 23.1 µM	–
CCc1cc(C(=O)OC)c(NC(=O)CC2Nc3cc(C)c(C)cc3NC2=O)s1 (stereo not drawn)	inactive	–
Cc1ccc(NS(=O)(=O)c2ccc(Br)s2)cc1S(=O)(=O)N1CCOCC1	inactive	–
Cc1cc(CNC(=O)COc2ccc(C#N)cc2)c2ccccc2n1	inconclusive [inhibitor, single point]	–
O=C(CCS(=O)(=O)c1cccs1)Nc1ccc(C(=O)Nc2ccccc2F)cc1	–	inconclusive: -33% [inhibitor]
Cc1ccc(N2C(=O)CC(Sc3cccs3)C2=O)cc1 (stereo not drawn)	active: 16.4 µM	–
Cc1ccc(-n2nc(C(=O)N/N=C/c3cccc(C(F)(F)F)c3)c3ccccc3c2=O)cc1C	inactive	–
COc1ccc(OC)c(S(=O)(=O)N2CCC(C(=O)NCCc3ccc(OC)c(OC)c3)CC2)c1	inactive	–
c1ccc2c(c1)CC(CN1CCNCC1)O2 (stereo not drawn)	inconclusive [inhibitor, single point]	–
CCCCOc1ccc(C(C)NC(=O)C2CCCN(S(=O)(=O)CCC)C2)cc1 (stereo not drawn)	active: 11.6 µM	–

Structure (SMILES)	Potency	activity change, negative = growth inhibition
CCOC(=O)N1CCC(N2CCN(S(=O)(=O)c3ccc([N+](=O)[O-])cc3)CC2)CC1	active: 13 µM	–
CC(C)CC(=O)/C(=C\c1ccc(Cl)cc1Cl)n1cncn1	active: 2.91 µM	–
CCOc1ccc(NC(=O)Cn2c(=O)n(-c3cccc(OC)c3)c(=O)c3c4c(sc32)CCCC4)cc1	inconclusive [inhibitor, single point]	–
CCCCN(CCCC)CCNC(=O)c1cn(CC)c2ccc(S(=O)(=O)N(C)C3CCCCC3)cc2c1=O	active: 23.1 µM and active: 4.61 µM	–
COc1ccc(OCCN2CCN(C(=O)c3ccc(OC)cc3)CC2)cc1	inactive	–
CCN(Cc1ccccc1)C(=O)CN(c1ccc(OC)cc1)S(=O)(=O)c1c(C)nn(C)c1C	inactive	–
Cc1ccc(C)c(Cn2cc(S(=O)(=O)c3ccc(Cl)cc3)c(=O)c3cc(F)ccc32)c1	inconclusive [inhibitor, single point]	–
COc1ccc(OC)c(NC(=O)CSc2ncccn2)c1	–	inconclusive: -30.4% [inhibitor]
CCN(Cc1ccncc1)C(=O)c1cc(COc2ccc(F)cc2Cl)on1	active: 16.4 µM	–
C[C@@H]1CN([C@@H](C)CO)C(=O)c2cc(NC(=O)Nc3ccccc3)ccc2O[C@@H](C)CCCCO[C@H]1CN(C)C(=O)Nc1ccc(C(F)(F)F)cc1	inconclusive [inhibitor, single point]	–
COc1ccc(N2CCN(S(=O)(=O)c3ccc4c(c3)NC(=O)CC(=O)N4)CC2)cc1	inactive	–
C=C(C)Cn1c(=O)c2c(nc3n2CCN3c2cccc(Cl)c2C)n(C)c1=O	inconclusive [inhibitor, partial curve]	–
CC(=O)N1CCc2c(sc3c2c(=O)n(CCc2ccccc2)c(=O)n3Cc2ccc(Cl)cc2)C1	inconclusive [inhibitor, single point]	–
CC1CCc2c(sc(NC(=O)CSc3nc4c(c(C(F)(F)F)n3)CCc3ccccc3-4)c2C(N)=O)C1 (stereo not drawn)	inactive	–
CC(C)COc1ccc(C(=O)Nc2ccc(N3CCOCC3)cc2N2CCOCC2)cc1	active: 18.4 µM	–
CCOC(=O)c1c(CN2CCN(Cc3ccccc3)CC2)n(C)c2cc(Br)c(OC)cc12	inconclusive [inhibitor, single point]	–
COc1ccc2c(c1)C=C(C(=O)NCc1ccc(Cl)cc1)CO2	inconclusive [inhibitor, single point]	–
COC(=O)c1cc2ccsc2n1CC(=O)Nc1cc(C)cc(C)c1	inconclusive [inhibitor, partial curve]	–
CC(NCc1ccc(OCC(N)=O)cc1)C12CC3CC(CC(C3)C1)C2 (stereo not drawn)	inactive	–
C=C1CC2C3CC[C@@]4(OCOC45COCO5)[C@@]3(C)C(O)CC2[C@@]2(C)CCC(=O)C=C12 (stereo partly drawn)	inconclusive [inhibitor, single point]	–
CN(C)c1ccc(/C=N/N(CCC#N)C2=NS(=O)(=O)c3ccccc32)cc1	inactive	–
Cc1cccc(C)c1NC(=O)c1cn(-c2ccccc2)nc1-c1ccccc1	inactive	–
O=C(Nc1cccc(F)c1)N1CCCC2(CCN(C(=O)c3cc(C(F)(F)F)cc(C(F)(F)F)c3)CC2)C1	inconclusive [inhibitor, single point]	–
